In the supplement of paper PMC6089552:
Several values for one entry are separate records, joined by “and”; a condition that tells them apart may be missing. Equal values may be shown once. Among all 3,200 compounds or so, about 300 (9.4%) showed activity. The list shows a part of the results, in another mix than the full data.

Test system: A673/TR/shEF
Experiment: cell viability (LOESS-normalised, relative to median of negative controls) (log2 ratio); higher = more viable cells (less compound effect), active = hit call of the paper (over 3 MAD below the median)
Conditions: treatment time: 72 h
In short: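 Doxycycline, present or absent from 24 h before compounds, was used to induce EWS-FLI1 shRNA knockdown in A673/TR/shEF Ewing sarcoma cells at 1,500 per well in 384-well plates. Cells then received library compounds at two or more concentrations, or DMSO controls, for three days. Viability was measured by CellTiter-Glo luminescence on an Envision reader, and per-plate LOESS correction, division by the negative-control median and log2 transformation followed.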

[1] = 0.25 µM, library screen: screen1, EWS-FLI1 expression: high (no doxycycline)
[2] = 0.25 µM, library screen: screen1, EWS-FLI1 expression: low (doxycycline-induced shRNA knockdown)
[3] = 2.5 µM, library screen: screen1, EWS-FLI1 expression: high (no doxycycline)
[4] = 2.5 µM, library screen: screen1, EWS-FLI1 expression: low (doxycycline-induced shRNA knockdown)
[5] = 0.25 µM, library screen: screen2, EWS-FLI1 expression: high (no doxycycline)
[6] = 0.25 µM, library screen: screen2, EWS-FLI1 expression: low (doxycycline-induced shRNA knockdown)
[7] = 2.5 µM, library screen: screen2, EWS-FLI1 expression: high (no doxycycline)
[8] = 2.5 µM, library screen: screen2, EWS-FLI1 expression: low (doxycycline-induced shRNA knockdown)
[9] = 0.025 µM, library screen: screen1, EWS-FLI1 expression: high (no doxycycline)
[10] = 0.025 µM, library screen: screen1, EWS-FLI1 expression: low (doxycycline-induced shRNA knockdown)
[11] = 25 µM, library screen: screen1, EWS-FLI1 expression: high (no doxycycline)
[12] = 25 µM, library screen: screen1, EWS-FLI1 expression: low (doxycycline-induced shRNA knockdown)
[13] = 0.103 µM, library screen: screen3, EWS-FLI1 expression: high (no doxycycline)
[14] = 0.103 µM, library screen: screen3, EWS-FLI1 expression: low (doxycycline-induced shRNA knockdown)
[15] = 0.308 µM, library screen: screen3, EWS-FLI1 expression: high (no doxycycline)
[16] = 0.308 µM, library screen: screen3, EWS-FLI1 expression: low (doxycycline-induced shRNA knockdown)
[17] = 0.926 µM, library screen: screen3, EWS-FLI1 expression: high (no doxycycline)
[18] = 0.926 µM, library screen: screen3, EWS-FLI1 expression: low (doxycycline-induced shRNA knockdown)
[19] = 2.8 µM, library screen: screen3, EWS-FLI1 expression: high (no doxycycline)
[20] = 2.8 µM, library screen: screen3, EWS-FLI1 expression: low (doxycycline-induced shRNA knockdown)
[21] = 8.3 µM, library screen: screen3, EWS-FLI1 expression: high (no doxycycline)
[22] = 8.3 µM, library screen: screen3, EWS-FLI1 expression: low (doxycycline-induced shRNA knockdown)
[23] = 25 µM, library screen: screen3, EWS-FLI1 expression: high (no doxycycline)
[24] = 25 µM, library screen: screen3, EWS-FLI1 expression: low (doxycycline-induced shRNA knockdown)

Measured: cell viability (log2)

O=C(Nc1c(-c2ccccc2)nc2ccc(Cl)cn12)c1ccc(F)cc1
inactive: [1] 0.0947 | [2] 0.0794 | [3] 0.184 | [4] -0.0685

CC(=O)OC1CCC2(C)C3=C(CC[C@H]2C1(C)C)[C@@]1(C)CC[C@@H]([C@@H](C)CCC=C(C)C)[C@]1(C)CC3 (some centres undefined)
inactive: [1] 0.058 | [2] -0.000522 | [3] 0.0338 | [4] -0.0772

Clc1cccc(CN2CCN(Cc3ccco3)CC2)c1
inactive: [1] 0.0456 | [2] 0.0122 | [3] 0.0707 | [4] -0.00788

CC1CN(S(=O)(=O)c2cccc3cnccc23)CCN1 (centres undefined)
inactive: [5] 0.246 | [6] 0.094 | [7] 0.214 | [8] 0.111

CCOC(=O)C1=C[C@]2(CC)CCCN3CCc4c(n1c1ccccc41)[C@@H]32
inactive: [1] 0.0816 | [2] 0.181 | [5] 0.117 | [6] 0.0747 | [3] 0.121 | [4] 0.157 | [7] 0.0944 | [8] -0.0237

CC(=O)c1cc2c(cc1O)OC(C)(C)C=C2
inactive: [1] 0.16 | [2] -0.0151 | [3] 0.126 | [4] 0.0912

N#CC(C#N)=C(N)/C(C#N)=C/c1ccc2[nH]ccc2c1
active: [3] -0.421 | [11] -0.203
inactive: [10] 0.0769 | [1] 0.269 | [2] 0.0358 | [4] 0.0519 | [12] 0.0138
0.369: [9]

O=C(O)CCC(=O)Nc1ccc(S(=O)(=O)Nc2nccs2)cc1
inactive: [1] 0.0404 | [2] 0.117 | [3] 0.0838 | [4] 0.0836

COc1cnc(NS(=O)(=O)c2ccc(N)cc2)nc1
inactive: [13] -0.0135 | [14] 0.073 | [1] 0.0544 | [2] 0.0896 | [15] -0.00761 | [16] 0.0337 | [17] 0.0887 | [18] -0.00887 | [3] 0.152 | [4] 0.136 | [19] 0.0694 | [20] 3.5e-05 | [21] -0.0117 | [22] 0.0542 | [23] 0.0313 | [24] 0.0493

Cc1cccc(CN2CCN(C(c3ccccc3)c3ccc(Cl)cc3)CC2)c1 (centres undefined)
inactive: [1] 0.0446 | [2] 0.0427 | [3] 0.139 | [4] 0.153

CNCCC(Oc1ccccc1OC)c1ccccc1 (centres undefined)
inactive: [5] 0.182 | [6] 0.0925 | [7] 0.0662 | [8] 0.0646

CC1CNCCN1S(=O)(=O)c1cccc2cnccc12 (centres undefined)
active: [11] -0.155
0.354: [9]
0.301: [1]
inactive: [10] 0.0557 | [2] 0.0236 | [5] 0.145 and 0.204 | [6] 0.0425 and 0.187 | [3] -0.0561 | [4] 0.0655 | [7] 0.0837 and 0.258 | [8] 0.0573 and 0.209 | [12] 0.112

O=NN(CCCl)C(=O)NC1CCCCC1
inactive: [13] 0.0432 | [14] 0.0116 | [15] 0.058 | [16] 0.121 | [17] 0.11 | [18] 0.0785 | [19] 0.0514 | [20] 0.0712 | [21] 0.0431 | [22] 0.0579 | [23] 0.0908 | [24] 0.065

CCCn1c(=O)c2[nH]c(-c3ccc(S(=O)(=O)O)cc3)nc2n(CCC)c1=O
inactive: [5] 0.268 | [6] 0.14 | [7] 0.145 | [8] 0.142

CC(C)CCC[C@@H](C)[C@H]1CC[C@H]2[C@@H]3C(=O)C=C4C[C@@H](O)CC[C@]4(C)[C@H]3CC[C@]12C
inactive: [1] 0.0534 | [2] 0.0186 | [3] 0.0996 | [4] -0.109

Cc1ccccc1N1C(=O)c2cc(S(N)(=O)=O)c(Cl)cc2NC1C (centres undefined)
inactive: [13] 0.0277 | [14] 0.0324 | [1] 0.0253 | [2] 0.102 | [5] 0.164 | [6] 0.107 | [15] 0.065 | [16] 0.0892 | [17] 0.0528 | [18] 0.0799 | [3] 0.0374 | [4] 0.071 | [7] 0.15 | [8] 0.121 | [19] 0.0296 | [20] 0.0636 | [21] 0.0226 | [22] 0.0707 | [23] 0.13 | [24] 0.129

COc1ccc(CN2CCN(Cc3ccc(OC)c(OC)c3OC)CC2)c(OC)c1
inactive: [1] 0.0664 | [2] 0.0443 | [3] 0.0638 | [4] 0.0995

O=C1N(c2ccccc2)c2ccccc2C1(Cc1ccncc1)Cc1ccncc1
active: [7] -0.0773
inactive: [5] 0.0704 | [6] 0.0498 | [8] 0.0762

[I-].[K+]
inactive: [13] -0.0757 | [14] 0.0133 | [15] 0.0608 | [16] -0.0377 | [17] 0.0917 | [18] 0.0201 | [19] 0.102 | [20] 0.0341 | [21] 0.0632 | [22] 0.0177 | [23] 0.122 | [24] 0.119

COc1ccc2c(c1)OCC(Cc1ccc(OC)c(OC(C)=O)c1)C2=O (centres undefined)
active: [3] -0.246

OCCOCCN1CCN(C(c2ccccc2)c2ccc(Cl)cc2)CC1 (centres undefined)
inactive: [1] 0.0742 | [2] 0.025 | [3] 0.108 | [4] 0.00756

CC(=O)O[C@H]1C[C@@H](OC(C)=O)C(C)(C)C2C[C@@H](O)[C@]3(C)C(CC[C@@]4(C)[C@H](c5ccoc5)OC(=O)[C@H]5O[C@]543)[C@]21C (some centres undefined)
inactive: [1] 0.0347 | [2] 0.0768 | [3] 0.0354 | [4] 0.16

O=C(c1cc(-c2ccccc2)nc2ccccc12)N1CCCC1
inactive: [1] 0.0657 | [2] 0.0915 | [3] 0.129 | [4] -0.0754

Nc1cccc2c1CN(C1CCC(=O)NC1=O)C2=O (centres undefined)
inactive: [13] 0.0947 | [14] 0.0775 | [15] 0.159 | [16] 0.0747 | [17] 0.0472 | [18] 0.124 | [19] 0.085 | [20] 0.0648 | [21] 0.0408 | [22] 0.0766 | [23] 0.0878 | [24] 0.135

CC(=O)Nc1ccc(O)cc1
inactive: [1] 0.0821 | [2] 0.0336 | [3] 0.152 | [4] 0.104

CC(=O)Oc1c(C)c(C)c2c(c1C)CCC(C)(CCCC(C)CCCC(C)CCCC(C)C)O2 (centres undefined)
0.288: [3]
0.357: [4]
inactive: [1] 0.136 | [2] 0.286

COc1ccc(-c2cc(=O)c3c(O)cc(O[C@@H]4O[C@H](CO[C@@H]5O[C@@H](C)[C@H](O)[C@@H](O)[C@H]5O)[C@@H](O)[C@H](O)[C@H]4O)cc3o2)cc1
inactive: [1] 0.0703 | [2] 0.0696 | [3] 0.0879 | [4] 0.0994

C[C@H](C[C@@H](O)[C@@H]1OC1(C)C)[C@@H]1CC[C@]2(C)C3=CC[C@H]4C(C)(C)C(=O)CC[C@]4(C)[C@H]3CC[C@@]12C
inactive: [1] 0.0762 | [2] 0.064 | [3] 0.0491 | [4] 0.136

C=C1C(C)(C)[C@@]2(Cl)C(Cl)[C@]1(Cl)C(Cl)(Cl)C2(Cl)Cl (some centres undefined)
inactive: [1] 0.0218 | [2] 0.106 | [3] 0.0433 | [4] 0.0358

CC(C)CC1NC(=O)CNC1=O (centres undefined)
inactive: [1] 0.138 | [2] 0.0779 | [3] 0.0859 | [4] 0.0262

COc1cc(O)c(C)c(O)c1
inactive: [1] 0.0455 | [2] 0.156 | [3] 0.0996 | [4] 0.176

NOCC(=O)O
inactive: [5] 0.106 | [6] 0.089 | [7] 0.0342 | [8] 0.101

C[C@H](CCC(=O)O)[C@H]1CC[C@H]2[C@@H]3CC[C@@H]4CCCC[C@]4(C)[C@H]3CC[C@]12C
inactive: [1] 0.0641 | [2] -0.0159 | [3] 0.109 | [4] -0.0358

COc1ccc(CN2CCN(Cc3ccccc3C(F)(F)F)CC2)c(OC)c1OC
inactive: [1] -0.00682 | [2] 0.0327 | [3] 0.087 | [4] 0.144

CCOC(=O)[C@H](CCc1ccccc1)N[C@@H](C)C(=O)N1CCC[C@H]1C(=O)O
inactive: [13] 0.0659 | [14] -0.00414 | [1] 0.12 | [2] 0.0778 | [15] 0.171 | [16] 0.0558 | [17] 0.232 | [18] 0.121 | [3] 0.152 | [4] 0.123 | [19] 0.127 | [20] 0.0972 | [21] 0.181 | [22] 0.0837 | [23] 0.159 | [24] 0.0989

Cn1nnnc1SCC1=C(C(=O)O)N2C(=O)[C@@H](NC(=O)[C@H](OC=O)c3ccccc3)[C@H]2SC1
inactive: [1] 0.149 | [2] 0.168 | [3] 0.117 | [4] 0.0898

CN(C)CCCO[C@@H]1[C@H]2OC(C)(C)O[C@H]2O[C@@H]1[C@H](O)CO
inactive: [1] 0.116 | [2] 0.193 | [5] 0.148 | [6] 0.0809 | [3] 0.166 | [4] 0.236 | [7] 0.0824 | [8] 0.185
